Test results taken from publication PMC4336329 (PLoS ONE, 2015).
The campaign covered roughly 310,000 compounds. About 2,200 (0.71%) showed an effect of 50% or more. Effects have a minus sign here. This is one part of the list.

molecular target: human ether-à-go-go-related gene (hERG) potassium channel (human, UniProt Q12809); assay: primary screen, population patch clamp on CHO cells stably expressing hERG
Sequence (Q12809 whole entry, looked up): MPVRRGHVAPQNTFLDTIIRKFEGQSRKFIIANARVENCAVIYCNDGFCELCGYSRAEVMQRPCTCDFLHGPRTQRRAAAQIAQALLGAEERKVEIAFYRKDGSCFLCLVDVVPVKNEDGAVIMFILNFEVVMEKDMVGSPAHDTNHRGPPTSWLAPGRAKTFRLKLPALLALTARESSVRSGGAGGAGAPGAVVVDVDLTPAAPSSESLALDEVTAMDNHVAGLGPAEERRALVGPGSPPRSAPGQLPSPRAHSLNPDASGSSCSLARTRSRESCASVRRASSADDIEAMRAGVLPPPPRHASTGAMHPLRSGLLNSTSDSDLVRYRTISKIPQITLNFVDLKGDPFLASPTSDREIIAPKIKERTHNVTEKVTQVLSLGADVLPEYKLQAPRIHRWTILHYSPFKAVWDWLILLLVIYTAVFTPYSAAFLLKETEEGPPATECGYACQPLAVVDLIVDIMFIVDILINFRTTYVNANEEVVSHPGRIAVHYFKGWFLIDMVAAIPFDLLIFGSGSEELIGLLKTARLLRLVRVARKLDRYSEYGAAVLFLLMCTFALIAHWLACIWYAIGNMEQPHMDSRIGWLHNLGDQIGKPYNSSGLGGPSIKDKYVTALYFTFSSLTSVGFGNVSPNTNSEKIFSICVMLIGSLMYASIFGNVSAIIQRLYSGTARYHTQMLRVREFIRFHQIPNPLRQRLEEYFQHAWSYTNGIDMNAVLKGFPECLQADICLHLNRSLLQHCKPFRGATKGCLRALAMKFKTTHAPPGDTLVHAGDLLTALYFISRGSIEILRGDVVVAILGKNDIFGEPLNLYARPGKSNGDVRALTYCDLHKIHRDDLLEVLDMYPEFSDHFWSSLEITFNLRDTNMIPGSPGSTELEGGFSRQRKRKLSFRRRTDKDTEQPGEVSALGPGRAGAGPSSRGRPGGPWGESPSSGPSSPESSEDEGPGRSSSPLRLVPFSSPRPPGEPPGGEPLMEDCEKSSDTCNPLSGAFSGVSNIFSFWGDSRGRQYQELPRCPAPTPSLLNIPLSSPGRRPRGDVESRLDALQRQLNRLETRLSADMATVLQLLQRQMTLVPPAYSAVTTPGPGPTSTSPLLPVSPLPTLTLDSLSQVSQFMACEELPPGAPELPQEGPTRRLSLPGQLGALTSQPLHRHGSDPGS

In order of rising “hERG current change (%, negative = inhibition) at 1uM” value:
1. N=c1c(C(=O)NC2CCCC2)cc2c(=O)n3ccccc3nc2n1Cc1ccccc1  -55.9%
2. COc1ccccc1NC(=S)N(CCN1CCCCCC1)Cc1cccs1  -20.6%
3. COc1ccc(OC)c(N(CC(=O)NCCSc2ccccc2)S(C)(=O)=O)c1  -12.8%
4. O=C(Nc1ccnn1C1CCN(Cc2ccn[nH]2)CC1)c1ccccc1  -12.7%
5. CC(=O)NC1C(=O)N=C(SCC(=O)NCc2ccccc2)NC1=O (centres unmarked)  -9.46%
6. Cc1c(NC(=O)c2ccccc2)c(=O)n(-c2ccccc2)n1C  -6.64%
7. O=C1CSc2ccc(S(=O)(=O)NCc3ccccc3)cc2N1  -3.94%
8. COc1ccc(C2c3c(n[nH]c3C)CC(C)(O)C2C(C)=O)cc1OC (centres unmarked)  -3.08%
9. COc1ccc(CCC(=O)OCC(=O)Nc2sccc2C(N)=O)cc1  -2.46%
10. CCCC(NC(=O)C(C)N1CCN(S(=O)(=O)c2ccccc2)CC1)c1ccccc1 (centres unmarked)  -2.25%
11. O=C(CCS(=O)(=O)c1cccs1)N1CCN(c2ccc(F)cc2)CC1  -2.19%
12. CCC(=O)OCCNc1cc(SCCC(=O)OC)c2nonc2c1[N+](=O)[O-]  -2.18%
13. CCOC(=O)c1sc(N2N=C(C)C(N=Nc3cccc(C)c3)C2=O)nc1C (centres unmarked)  -1.94%
14. Cc1ccc(NC(=O)CN(C)C(=O)CCC(=O)c2cccs2)cc1  -0.0997%
15. Cc1ccc(-n2c(Cc3cccn3C)nnc2SCC(=O)Nc2cc(C)on2)cc1  0.494%
16. Cc1cc(Br)ccc1SCC(=O)OCC(=O)c1c(N)n(C)c(=O)n(C)c1=O  0.893%
17. COC(=O)Nc1nc(C)c(C(=O)c2ccccc2)s1  1.18%
18. CCC(C)(C)NC(=O)CN(C(=O)c1snc(C(N)=O)c1N)c1ccc2c(c1)OCO2  3.43%
19. CC(NC(=O)Nc1ncccn1)(C(F)(F)F)C(F)(F)F  4.42%
20. CCn1c(=O)cc(N2CCOCC2)[nH]c1=O  4.64%
21. Cc1c(/C(O)=C2/C(=O)C(=O)N(CCN3CCOCC3)C2c2ccccn2)cnn1-c1ccccc1 (centres unmarked)  5.21%
22. COc1cccc(NC(=O)[C@H](Cc2ccccc2)NC(=O)[C@@H]2Cc3ccccc3CN2)c1  6.62%
23. Cn1c(CN2CCCC2)nc2cc(NC(=O)C3CCCCC3)ccc21  6.67%
24. O=C1C2C3C=CC(CC3)C2C(=O)N1/N=C/c1ccccc1O (centres unmarked)  7.3%
25. COc1ccc(N=C2SC(C(=O)Nc3ccc(F)cc3)CC(=O)N2C)cc1 (centres unmarked)  7.4%
26. Cc1ccc(C)c(NC(=O)CN(C)C(=O)c2nn(C)c(=O)c3ccccc23)c1  7.54%
27. CCOC(=O)CSc1nc(-c2ccccc2)cc(C(F)(F)F)n1  8%
28. CCOC(=O)N1CCN(C(=O)Cn2c(C)cc3ccccc3c2=O)CC1  8.46%
29. CCOC(=O)C1=C(C)OC(N)=C(C#N)C1c1ccccc1 (centres unmarked)  8.51%
30. CC(C)O.COC(=O)Nc1ccc2c(c1)N(C(=O)CCN1CCN3CCCC3C1)c1ccccc1CC2.Cl.O (centres unmarked)  8.89%
31. COC(=O)c1c(NC(=O)COC(=O)CNC(=O)C2CCCCC2)sc(C)c1C  8.95%
32. Cc1[nH]n(-c2ccccc2)c(=O)c1N=Nc1ccccc1C(=O)O  9.15%
33. O=C(COC(=O)c1ccc([N+](=O)[O-])o1)Nc1nc2ccccc2s1  9.21%
34. CC(C)(C)OC(=O)NCCCCCNC(=O)c1nc[nH]c1C(=O)NCc1ccccc1  9.62%
35. COc1ccc2c(c1OC)C(=O)OC2CC(=O)c1ccc2c(c1)OCO2 (centres unmarked)  10.2%
36. CC(=O)c1cccc(N(CC(=O)N2CCCC2)S(C)(=O)=O)c1  10.3%
37. CC(c1ccc(F)cc1)n1c(Cn2ncc3ccccc3c2=O)n[nH]c1=S (centres unmarked)  10.4%
38. CSCC(=O)Nc1cc(C)on1  10.6%
39. COc1cc(C(=O)Nc2ccc3c(c2)OCO3)c([N+](=O)[O-])cc1OC  10.8%
40. Cc1cc2oc(C(=O)NCc3ccc4c(c3)OCO4)c(C)c2cc1C  11.9%
41. CCCOC1CCCN(C(=O)CCCn2nnnc2CN2CCOCC2)C1 (centres unmarked)  11.9%
42. CCCOc1ccc(N/C=C/C(=O)c2cc(OC)c(OC)c(OC)c2)cc1  12.4%
43. COc1ccc(N(CCCN2C(=O)c3cccc4cccc(c34)C2=O)C(=O)c2cccs2)cc1  12.5%
44. COc1ccc(OC)c(/C=C/C(=O)OCC(=O)Nc2ccc3c(c2)OCCO3)c1  12.6%
45. CN(C(=O)c1ccccc1)C1c2c(ccc3ccccc23)OCC1CO (centres unmarked)  13.5%
46. O=C(Cn1cnc2ccccc2c1=O)c1ccc(Br)cc1  13.6%
47. O=C(NNC(=O)c1nn(-c2ccc(F)cc2)ccc1=O)Nc1cccc(Cl)c1  14.4%
48. O=C(Nc1nnc(-c2ccccc2)o1)C1CCCCC1  15.8%
49. CCOC(=O)CSc1nc2sc3c(c2c(=O)[nH]1)CC(C)(C)OC3  16%
50. Cc1ccc(S(=O)(=O)CC(=O)Nc2cc(C)on2)cc1  16.4%
51. C=CCn1c(N)cc(=O)nc1SCC(=O)Nc1ccc(C(=O)OCC)cc1  16.5%
52. O=C(c1ccco1)N1CCN(c2nc(C3CC3)nc3c2nnn3Cc2ccccc2Cl)CC1  16.5%
53. CSc1ncc(CN2CCN(CC=C(C)C)C(CCO)C2)cn1 (centres unmarked)  16.7%
54. COC(=O)c1nn(-c2ccccc2)c(Cl)c1/C=N/OCc1ccc(C)cc1  16.9%
55. COc1ccccc1N1CCN(C(=O)c2oc3cc(C)cc(C)c3c2C)CC1  17.7%
56. COc1ccc(CC(C)Nc2ccccc2F)cc1 (centres unmarked)  23%
